{"source": "the supplement of paper PMC8728848", "binders": {"B1": {"name": "SP16663B-bot-321-25-321 (Bacteroides ovatus) (protein)", "chain": "DDDDEVTMNSKFYLSTKVFPVDSYEASLSVILKDNSVVVNELQPNYRFVACATERLSKDVKITADSDDNLVSAYNKANDTEYNILPAENYSFTNKTVTIENGESVSGDSIKIELLNVGSLTTEGGYLLPVTISSIEGNNLDALSSNRGVVYLKIQNIHVNVESGQPAEGTLIADRSGWTVKVAPTTRGDAKNLIDGTNSDVARDGGAEYWLTVDIGKVQTLTGIRNKCYASSYSPTAVEVFTSSDGAKWKSIGAVTISKSGTQYIKFSKAVETRYLKYYVKQGPNTVSLTEFDLYAK"}}, "assay_in_all_cases": "glycan array binding signal (z-score within array); higher = stronger binding", "details_in_all_cases": "glycan notation: IUPAC condensed, linker removed", "key": {"[1]": {"biological_target": "Fuc(a1-3)[Gal3S(b1-4)]GlcNAc6S", "in_short": "(§1)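 Glycan array binding is given as a within-array Z-score, which can be read as non-binding when negative. The arrays, 3228 of them, came from the Consortium for Functional Glycomics database and were retained only where the protein sequence was available. Z-scores were averaged across arrays of the same protein sequence at different concentrations or buffers and across linkers.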"}, "[2]": {"biological_target": "Fuc(a1-3)[GalNAc(b1-4)]GlcNAc", "in_short": "as §1"}, "[3]": {"biological_target": "Fuc(a1-3)[GalNAc(b1-4)]GlcNAc6S", "in_short": "as §1"}, "[4]": {"biological_target": "Fuc(a1-4)GlcNAc", "in_short": "as §1"}, "[5]": {"biological_target": "Fuc(b1-3)GlcNAc", "in_short": "as §1"}, "[6]": {"biological_target": "Gal(a1-2)Gal", "in_short": "as §1"}, "[7]": {"biological_target": "Gal(a1-3)Gal", "in_short": "as §1"}, "[8]": {"biological_target": "Gal(a1-3)Gal(b1-3)GlcNAc", "in_short": "as §1"}, "[9]": {"biological_target": "Gal(a1-3)Gal(b1-3)GlcNAc(b1-2)Man", "in_short": "as §1"}, "[10]": {"biological_target": "Gal(a1-3)Gal(b1-3)GlcNAc(b1-2)Man(a1-3)[Gal(a1-3)Gal(b1-3)GlcNAc(b1-2)Man(a1-6)]Man(b1-4)GlcNAc(b1-4)GlcNAc", "in_short": "as §1"}, "[11]": {"biological_target": "Gal(a1-3)Gal(b1-3)GlcNAc(b1-3)GalNAc", "in_short": "as §1"}, "[12]": {"biological_target": "Gal(a1-3)Gal(b1-3)GlcNAc(b1-6)GalNAc", "in_short": "as §1"}, "[13]": {"biological_target": "Gal(a1-3)Gal(b1-3)[Fuc(a1-4)]GlcNAc(b1-2)Man(a1-3)[Gal(a1-3)Gal(b1-3)[Fuc(a1-4)]GlcNAc(b1-2)Man(a1-6)]Man(b1-4)GlcNAc(b1-4)GlcNAc", "in_short": "as §1"}, "[14]": {"biological_target": "Gal(a1-3)Gal(b1-4)Glc", "in_short": "as §1"}, "[15]": {"biological_target": "Gal(a1-3)Gal(b1-4)GlcNAc", "in_short": "as §1"}, "[16]": {"biological_target": "Gal(a1-3)Gal(b1-4)GlcNAc(b1-2)Man", "in_short": "as §1"}, "[17]": {"biological_target": "Gal(a1-3)Gal(b1-4)GlcNAc(b1-2)Man(a1-3)[Gal(a1-3)Gal(b1-4)GlcNAc(b1-2)Man(a1-6)]Man(b1-4)GlcNAc(b1-4)GlcNAc", "in_short": "as §1"}, "[18]": {"biological_target": "Gal(a1-3)Gal(b1-4)GlcNAc(b1-3)GalNAc", "in_short": "as §1"}, "[19]": {"biological_target": "Gal(a1-3)Gal(b1-4)GlcNAc(b1-6)GalNAc", "in_short": "as §1"}, "[20]": {"biological_target": "Gal(a1-3)Gal(b1-4)[Fuc(a1-3)]GlcNAc", "in_short": "as §1"}, "[21]": {"biological_target": "Gal(a1-3)Gal(b1-4)[Fuc(a1-3)]GlcNAc(b1-2)Man(a1-3)[Gal(a1-3)Gal(b1-4)[Fuc(a1-3)]GlcNAc(b1-2)Man(a1-6)]Man(b1-4)GlcNAc(b1-4)GlcNAc", "in_short": "as §1"}, "[22]": {"biological_target": "Gal(a1-3)GalNAc", "in_short": "as §1"}, "[23]": {"biological_target": "Gal(a1-3)[Gal(a1-4)]Gal(b1-4)GlcNAc", "in_short": "as §1"}, "[24]": {"biological_target": "Gal(a1-4)Gal(b1-3)GlcNAc(b1-2)Man(a1-3)[Gal(a1-4)Gal(b1-3)GlcNAc(b1-2)Man(a1-6)]Man(b1-4)GlcNAc(b1-4)GlcNAc", "in_short": "as §1"}, "[25]": {"biological_target": "Gal(a1-4)Gal(b1-4)Glc", "in_short": "as §1"}, "[26]": {"biological_target": "Gal(a1-4)Gal(b1-4)GlcNAc", "in_short": "as §1"}, "[27]": {"biological_target": "Gal(a1-4)Gal(b1-4)GlcNAc(b1-2)Man(a1-3)[Gal(a1-4)Gal(b1-4)GlcNAc(b1-2)Man(a1-6)]Man(b1-4)GlcNAc(b1-4)GlcNAc", "in_short": "as §1"}, "[28]": {"biological_target": "Gal(a1-4)Gal(b1-4)GlcNAc(b1-3)Gal(b1-4)Glc", "in_short": "as §1"}, "[29]": {"biological_target": "Gal(a1-4)GlcNAc", "in_short": "as §1"}, "[30]": {"biological_target": "Gal(a1-6)Glc", "in_short": "as §1"}, "[31]": {"biological_target": "Gal(b1-2)Gal", "in_short": "as §1"}, "[32]": {"biological_target": "Gal(b1-3)Gal", "in_short": "as §1"}, "[33]": {"biological_target": "Gal(b1-3)Gal(b1-4)GlcNAc", "in_short": "as §1"}, "[34]": {"biological_target": "Gal(b1-3)GalNAc", "in_short": "as §1"}, "[35]": {"biological_target": "Gal(b1-3)GalNAc(a1-3)[Fuc(a1-2)]Gal(b1-4)Glc", "in_short": "as §1"}, "[36]": {"biological_target": "Gal(b1-3)GalNAc(a1-3)[Fuc(a1-2)]Gal(b1-4)GlcNAc", "in_short": "as §1"}, "[37]": {"biological_target": "Gal(b1-3)GalNAc(b1-3)Gal", "in_short": "as §1"}}, "note": "This is one part of the list.", "data": [{"binder": "B1", "values": [{"measurement": "glycan array binding signal (z-score)", "setting": "[1]", "result": -0.468}, {"measurement": "glycan array binding signal (z-score)", "setting": "[2]", "result": 0.867}, {"measurement": "glycan array binding signal (z-score)", "setting": "[3]", "result": 0.084}, {"measurement": "glycan array binding signal (z-score)", "setting": "[4]", "result": 21.5}, {"measurement": "glycan array binding signal (z-score)", "setting": "[5]", "result": 0.24}, {"measurement": "glycan array binding signal (z-score)", "setting": "[6]", "result": 0.593}, {"measurement": "glycan array binding signal (z-score)", "setting": "[7]", "result": 0.418}, {"measurement": "glycan array binding signal (z-score)", "setting": "[8]", "result": 0.607}, {"measurement": "glycan array binding signal (z-score)", "setting": "[9]", "result": -0.269}, {"measurement": "glycan array binding signal (z-score)", "setting": "[10]", "result": -0.494}, {"measurement": "glycan array binding signal (z-score)", "setting": "[11]", "result": -0.377}, {"measurement": "glycan array binding signal (z-score)", "setting": "[12]", "result": 0.655}, {"measurement": "glycan array binding signal (z-score)", "setting": "[13]", "result": 0.425}, {"measurement": "glycan array binding signal (z-score)", "setting": "[14]", "result": -0.34}, {"measurement": "glycan array binding signal (z-score)", "setting": "[15]", "result": -0.218}, {"measurement": "glycan array binding signal (z-score)", "setting": "[16]", "result": -0.738}, {"measurement": "glycan array binding signal (z-score)", "setting": "[17]", "result": 0.266}, {"measurement": "glycan array binding signal (z-score)", "setting": "[18]", "result": -0.585}, {"measurement": "glycan array binding signal (z-score)", "setting": "[19]", "result": -0.774}, {"measurement": "glycan array binding signal (z-score)", "setting": "[20]", "result": -0.313}, {"measurement": "glycan array binding signal (z-score)", "setting": "[21]", "result": -0.421}, {"measurement": "glycan array binding signal (z-score)", "setting": "[22]", "result": 0.192}, {"measurement": "glycan array binding signal (z-score)", "setting": "[23]", "result": 0.574}, {"measurement": "glycan array binding signal (z-score)", "setting": "[24]", "result": -0.127}, {"measurement": "glycan array binding signal (z-score)", "setting": "[25]", "result": -0.548}, {"measurement": "glycan array binding signal (z-score)", "setting": "[26]", "result": 0.642}, {"measurement": "glycan array binding signal (z-score)", "setting": "[27]", "result": 0.119}, {"measurement": "glycan array binding signal (z-score)", "setting": "[28]", "result": -0.359}, {"measurement": "glycan array binding signal (z-score)", "setting": "[29]", "result": -0.546}, {"measurement": "glycan array binding signal (z-score)", "setting": "[30]", "result": -0.741}, {"measurement": "glycan array binding signal (z-score)", "setting": "[31]", "result": -0.275}, {"measurement": "glycan array binding signal (z-score)", "setting": "[32]", "result": -0.483}, {"measurement": "glycan array binding signal (z-score)", "setting": "[33]", "result": 0.44}, {"measurement": "glycan array binding signal (z-score)", "setting": "[34]", "result": -0.122}, {"measurement": "glycan array binding signal (z-score)", "setting": "[35]", "result": -0.267}, {"measurement": "glycan array binding signal (z-score)", "setting": "[36]", "result": 0.09}, {"measurement": "glycan array binding signal (z-score)", "setting": "[37]", "result": -0.151}]}]}
